# The other results are listed elsewhere or left out.
# B1: Gal 3C (Homo sapiens), P17931 (protein)
# chain: YGAPAGPLIVPYNLPLPGGVVPRMLITILGTVKPNANRIALDFQRGNDVAFHFNPRFNENNRRVIVCNTKLDNNWGREERQSVFPFESGKPFKIQVLVEPDHFKVAVNDAHLLQYNHRVKKLNEISKLGISGDIDLTSASYTMI
# Legend:
# Assay in all cases: glycan array binding signal (z-score within array); higher = stronger binding
# Details in all cases: glycan notation: IUPAC condensed, linker removed
# Gal(a1-3)Gal(b1-4)GlcNAc = target: Gal(a1-3)Gal(b1-4)GlcNAc
# Outline: (§1)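 Glycan array data came from 3228 arrays in the Consortium for Functional Glycomics database, and only arrays with an available protein sequence were kept. Glycan names were put into IUPAC-condensed notation, and columns mapping to the same glycan were averaged. The binding signal is a within-array Z-score, averaged across arrays of one protein sequence run at different concentrations or buffers and across linkers. A negative Z-score can be read as non-binding.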
# [1] = target: Gal(a1-3)Gal(b1-4)GlcNAc(b1-2)Man
# Outline: as §1
# [2] = target: Gal(a1-3)Gal(b1-4)GlcNAc(b1-2)Man(a1-3)[Gal(a1-3)Gal(b1-4)GlcNAc(b1-2)Man(a1-6)]Man(b1-4)GlcNAc(b1-4)GlcNAc
# Outline: as §1
# [3] = target: Gal(a1-3)Gal(b1-4)GlcNAc(b1-3)GalNAc
# Outline: as §1
# [4] = target: Gal(a1-3)Gal(b1-4)GlcNAc(b1-6)GalNAc
# Outline: as §1
# [5] = target: Gal(a1-3)Gal(b1-4)[Fuc(a1-3)]GlcNAc
# Outline: as §1
# [6] = target: Gal(a1-3)Gal(b1-4)[Fuc(a1-3)]GlcNAc(b1-2)Man(a1-3)[Gal(a1-3)Gal(b1-4)[Fuc(a1-3)]GlcNAc(b1-2)Man(a1-6)]Man(b1-4)GlcNAc(b1-4)GlcNAc
# Outline: as §1
# Gal(a1-3)GalNAc = target: Gal(a1-3)GalNAc
# Outline: as §1
# [7] = target: Gal(a1-3)[Gal(a1-4)]Gal(b1-4)GlcNAc
# Outline: as §1
# [8] = target: Gal(a1-4)Gal(b1-3)GlcNAc(b1-2)Man(a1-3)[Gal(a1-4)Gal(b1-3)GlcNAc(b1-2)Man(a1-6)]Man(b1-4)GlcNAc(b1-4)GlcNAc
# Outline: as §1
# Gal(a1-4)Gal(b1-4)Glc = target: Gal(a1-4)Gal(b1-4)Glc
# Outline: as §1
# Gal(a1-4)Gal(b1-4)GlcNAc = target: Gal(a1-4)Gal(b1-4)GlcNAc
# Outline: as §1
# [9] = target: Gal(a1-4)Gal(b1-4)GlcNAc(b1-2)Man(a1-3)[Gal(a1-4)Gal(b1-4)GlcNAc(b1-2)Man(a1-6)]Man(b1-4)GlcNAc(b1-4)GlcNAc
# Outline: as §1
# [10] = target: Gal(a1-4)Gal(b1-4)GlcNAc(b1-3)Gal(b1-4)Glc
# Outline: as §1
# Gal(a1-4)GlcNAc = target: Gal(a1-4)GlcNAc
# Outline: as §1
# Gal(a1-6)Glc = target: Gal(a1-6)Glc
# Outline: as §1
# Gal(b1-2)Gal = target: Gal(b1-2)Gal
# Outline: as §1
# Gal(b1-3)Gal = target: Gal(b1-3)Gal
# Outline: as §1
# Gal(b1-3)Gal(b1-4)GlcNAc = target: Gal(b1-3)Gal(b1-4)GlcNAc
# Outline: as §1
# Gal(b1-3)GalNAc = target: Gal(b1-3)GalNAc
# Outline: as §1
# [11] = target: Gal(b1-3)GalNAc(a1-3)[Fuc(a1-2)]Gal(b1-4)Glc
# Outline: as §1
# [12] = target: Gal(b1-3)GalNAc(a1-3)[Fuc(a1-2)]Gal(b1-4)GlcNAc
# Outline: as §1
# Gal(b1-3)GalNAc(b1-3)Gal = target: Gal(b1-3)GalNAc(b1-3)Gal
# Outline: as §1
# [13] = target: Gal(b1-3)GalNAc(b1-3)Gal(a1-4)Gal(b1-4)Glc
# Outline: as §1
# [14] = target: Gal(b1-3)GalNAc(b1-4)Gal(b1-4)Glc
# Outline: as §1
# [15] = target: Gal(b1-3)GalNAc(b1-4)[Neu5Ac(a2-3)]Gal(b1-4)Glc
# Outline: as §1
# Gal(b1-3)GlcNAc = target: Gal(b1-3)GlcNAc
# Outline: as §1
# [16] = target: Gal(b1-3)GlcNAc(a1-3)Gal(b1-4)GlcNAc
# Outline: as §1
# [17] = target: Gal(b1-3)GlcNAc(a1-6)Gal(b1-4)GlcNAc
# Outline: as §1
# Gal(b1-3)GlcNAc(b1-2)Man = target: Gal(b1-3)GlcNAc(b1-2)Man
# Outline: as §1
# [18] = target: Gal(b1-3)GlcNAc(b1-2)Man(a1-3)[Gal(b1-3)GlcNAc(b1-2)Man(a1-6)]Man(b1-4)GlcNAc(b1-4)GlcNAc
# Outline: as §1
# [19] = target: Gal(b1-3)GlcNAc(b1-2)Man(a1-3)[Gal(b1-3)GlcNAc(b1-2)Man(a1-6)]Man(b1-4)GlcNAc(b1-4)[Fuc(a1-6)]GlcNAc
# Outline: as §1
# [20] = target: Gal(b1-3)GlcNAc(b1-2)Man(a1-3)[GlcNAc(b1-4)][Gal(b1-3)GlcNAc(b1-2)Man(a1-6)]Man(b1-4)GlcNAc(b1-4)GlcNAc
# Outline: as §1
# [21] = target: Gal(b1-3)GlcNAc(b1-2)[Gal(b1-3)GlcNAc(b1-6)]Man(a1-6)[Gal(b1-3)GlcNAc(b1-2)Man(a1-3)]Man(b1-4)GlcNAc(b1-4)GlcNAc
# Outline: as §1
# [22] = target: Gal(b1-3)GlcNAc(b1-3)Gal(b1-3)GlcNAc
# Outline: as §1
# [23] = target: Gal(b1-3)GlcNAc(b1-3)Gal(b1-4)Glc
# Outline: as §1
# [24] = target: Gal(b1-3)GlcNAc(b1-3)Gal(b1-4)GlcNAc
# Outline: as §1
# [25] = target: Gal(b1-3)GlcNAc(b1-3)Gal(b1-4)GlcNAc(b1-2)Man(a1-3)[Gal(b1-3)GlcNAc(b1-3)Gal(b1-4)GlcNAc(b1-2)Man(a1-6)]Man(b1-4)GlcNAc(b1-4)GlcNAc
# Outline: as §1
# [26] = target: Gal(b1-3)GlcNAc(b1-3)Gal(b1-4)GlcNAc(b1-2)[Gal(b1-3)GlcNAc(b1-3)Gal(b1-4)GlcNAc(b1-6)]Man(a1-6)[Gal(b1-3)GlcNAc(b1-3)Gal(b1-4)GlcNAc(b1-2)Man(a1-3)]Man(b1-4)GlcNAc(b1-4)[Fuc(a1-6)]GlcNAc
# Outline: as §1
# [27] = target: Gal(b1-3)GlcNAc(b1-3)Gal(b1-4)GlcNAc(b1-3)Gal(b1-4)GlcNAc(b1-2)[Gal(b1-3)GlcNAc(b1-3)Gal(b1-4)GlcNAc(b1-3)Gal(b1-4)GlcNAc(b1-6)]Man(a1-6)[Gal(b1-3)GlcNAc(b1-3)Gal(b1-4)GlcNAc(b1-3)Gal(b1-4)GlcNAc(b1-2)Man(a1-3)]Man(b1-4)GlcNAc(b1-4)[Fuc(a1-6)]GlcNAc
# Outline: as §1
# [28] = target: Gal(b1-3)GlcNAc(b1-3)Gal(b1-4)GlcNAc(b1-6)[Gal(b1-3)GlcNAc(b1-3)]Gal(b1-4)Glc
# Outline: as §1
# [29] = target: Gal(b1-3)GlcNAc(b1-3)Gal(b1-4)[Fuc(a1-3)]GlcNAc
# Outline: as §1
# [30] = target: Gal(b1-3)GlcNAc(b1-3)Gal(b1-4)[Fuc(a1-3)]GlcNAc(b1-6)[Gal(b1-3)GlcNAc(b1-3)]Gal(b1-4)Glc
# Outline: as §1
# [31] = target: Gal(b1-3)GlcNAc(b1-3)GalNAc
# Outline: as §1
# [32] = target: Gal(b1-3)GlcNAc(b1-6)Gal(b1-4)GlcNAc
# Outline: as §1
binder,measurement,setting,value
B1,glycan array binding signal (z-score),Gal(a1-3)Gal(b1-4)GlcNAc,-0.312
same,glycan array binding signal (z-score),[1],-0.29
same,glycan array binding signal (z-score),[2],0.738
same,glycan array binding signal (z-score),[3],-0.309
same,glycan array binding signal (z-score),[4],-0.232
same,glycan array binding signal (z-score),[5],-0.259
same,glycan array binding signal (z-score),[6],-0.257
same,glycan array binding signal (z-score),Gal(a1-3)GalNAc,-0.174
same,glycan array binding signal (z-score),[7],-0.251
same,glycan array binding signal (z-score),[8],-0.287
same,glycan array binding signal (z-score),Gal(a1-4)Gal(b1-4)Glc,-0.203
same,glycan array binding signal (z-score),Gal(a1-4)Gal(b1-4)GlcNAc,-0.274
same,glycan array binding signal (z-score),[9],-0.173
same,glycan array binding signal (z-score),[10],-0.309
same,glycan array binding signal (z-score),Gal(a1-4)GlcNAc,-0.295
same,glycan array binding signal (z-score),Gal(a1-6)Glc,-0.222
same,glycan array binding signal (z-score),Gal(b1-2)Gal,-0.228
same,glycan array binding signal (z-score),Gal(b1-3)Gal,-0.27
same,glycan array binding signal (z-score),Gal(b1-3)Gal(b1-4)GlcNAc,-0.351
same,glycan array binding signal (z-score),Gal(b1-3)GalNAc,-0.277
same,glycan array binding signal (z-score),[11],-0.26
same,glycan array binding signal (z-score),[12],0.638
same,glycan array binding signal (z-score),Gal(b1-3)GalNAc(b1-3)Gal,-0.282
same,glycan array binding signal (z-score),[13],-0.237
same,glycan array binding signal (z-score),[14],-0.285
same,glycan array binding signal (z-score),[15],-0.291
same,glycan array binding signal (z-score),Gal(b1-3)GlcNAc,-0.332
same,glycan array binding signal (z-score),[16],-0.346
same,glycan array binding signal (z-score),[17],-0.269
same,glycan array binding signal (z-score),Gal(b1-3)GlcNAc(b1-2)Man,-0.143
same,glycan array binding signal (z-score),[18],-0.291
same,glycan array binding signal (z-score),[19],-0.259
same,glycan array binding signal (z-score),[20],-0.175
same,glycan array binding signal (z-score),[21],-0.204
same,glycan array binding signal (z-score),[22],-0.068
same,glycan array binding signal (z-score),[23],-0.322
same,glycan array binding signal (z-score),[24],-0.222
same,glycan array binding signal (z-score),[25],1.31
same,glycan array binding signal (z-score),[26],0.271
same,glycan array binding signal (z-score),[27],1.95
same,glycan array binding signal (z-score),[28],-0.144
same,glycan array binding signal (z-score),[29],-0.244
same,glycan array binding signal (z-score),[30],-0.349
same,glycan array binding signal (z-score),[31],-0.251
same,glycan array binding signal (z-score),[32],-0.255

# — the supplement of paper PMC8728848
